PMC4336329 (PLoS ONE, 2015)
Among all 310,000 compounds or so, about 2,200 (0.71%) showed an effect of 50% or more. The effect is printed as a negative number. The list shows a part of the results.

These molecules were tested against human ether-à-go-go-related gene (hERG) potassium channel (human, UniProt Q12809) (assay: primary screen, population patch clamp on CHO cells stably expressing hERG).
Chain of human ether-à-go-go-related gene (hERG) potassium channel (Q12809 whole entry, looked up): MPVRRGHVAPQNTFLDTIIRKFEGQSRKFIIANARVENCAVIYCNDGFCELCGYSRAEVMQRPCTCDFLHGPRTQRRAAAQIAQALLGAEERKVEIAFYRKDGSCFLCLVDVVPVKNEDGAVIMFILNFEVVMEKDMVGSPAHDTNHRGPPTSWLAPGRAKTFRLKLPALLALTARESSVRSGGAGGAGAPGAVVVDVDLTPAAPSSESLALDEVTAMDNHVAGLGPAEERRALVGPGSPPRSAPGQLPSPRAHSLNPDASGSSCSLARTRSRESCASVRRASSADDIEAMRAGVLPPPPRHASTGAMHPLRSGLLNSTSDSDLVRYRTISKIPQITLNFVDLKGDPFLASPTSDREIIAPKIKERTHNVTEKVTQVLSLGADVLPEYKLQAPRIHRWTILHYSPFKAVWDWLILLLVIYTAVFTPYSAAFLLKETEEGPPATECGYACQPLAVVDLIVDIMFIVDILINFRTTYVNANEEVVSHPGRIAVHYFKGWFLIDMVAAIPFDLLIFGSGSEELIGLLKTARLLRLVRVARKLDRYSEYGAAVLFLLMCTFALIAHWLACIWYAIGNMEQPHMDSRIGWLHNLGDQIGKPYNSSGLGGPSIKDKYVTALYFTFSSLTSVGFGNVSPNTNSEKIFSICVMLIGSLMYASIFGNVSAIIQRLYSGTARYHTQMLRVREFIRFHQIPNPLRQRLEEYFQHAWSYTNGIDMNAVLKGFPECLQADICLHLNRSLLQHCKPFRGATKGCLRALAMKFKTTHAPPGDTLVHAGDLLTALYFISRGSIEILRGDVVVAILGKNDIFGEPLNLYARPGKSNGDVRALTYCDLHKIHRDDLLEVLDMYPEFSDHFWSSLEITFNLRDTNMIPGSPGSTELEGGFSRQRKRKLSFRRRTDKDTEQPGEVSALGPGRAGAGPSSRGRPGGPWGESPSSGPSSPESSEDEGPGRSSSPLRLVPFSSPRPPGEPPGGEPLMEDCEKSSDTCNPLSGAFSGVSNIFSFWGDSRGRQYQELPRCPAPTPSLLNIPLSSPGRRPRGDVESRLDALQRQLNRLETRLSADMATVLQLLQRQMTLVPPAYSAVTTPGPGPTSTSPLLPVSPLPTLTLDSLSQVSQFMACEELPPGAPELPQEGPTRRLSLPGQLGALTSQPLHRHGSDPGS

SMILES | hERG current change (%, negative = inhibition) at 1uM [%]
N#Cc1cn(CC(=O)N2CCc3ccccc3C2)c2ccccc12 | 11.9
Cc1c(NC2=CC(=O)CCC2)c(=O)n(-c2ccccc2)n1C | 9.41
O=C(Cn1nc(-c2ccco2)ccc1=O)Nc1cc(Cl)ccc1Cl | 9.71
COc1cc(C(=O)Nc2c(C(=O)O)[nH]c3ccc(Br)cc23)cc(OC)c1OC | 6.19
O=C(Nc1ccc(S(=O)(=O)NC2CCCCC2)cc1)c1ccc(Br)o1 | 1.61
COc1ccc(NC(=O)NCc2ccco2)cc1OC | 1.01
OC1CCCC1 | 14.5
COc1ccc(C(CNC(=O)c2cccc(S(=O)(=O)NCc3ccccc3)c2)N(C)C)cc1 (stereo not shown) | -4.45
NC(=O)c1nsc(C(=O)N(CC(=O)NC2CCCC2)c2cnc3ccccc3c2)c1N | 4.62
CCN1C(=O)/C(=C/c2cccs2)N(C)C1=S | 6.19
O=C(/C=C/c1cccnc1)c1ccc(NC(=O)c2cccc(Br)c2)cc1 | 8.9
Cc1ccc(C(C)C)c(OCc2ccc(C(=O)N/N=C/c3ccc(C(=O)O)cc3)cc2)c1 | 3.46
O=C(Cn1cc([N+](=O)[O-])ccc1=O)NC1CCCCC1 | 8.69
CCOc1cc(C(=O)NC(C)C2CCCO2)cc(OCC)c1OCC (stereo not shown) | 8.17
O=C(Nc1nccs1)[C@@H]1CCCN1C(=O)c1cccs1 | 1.24
CC(=O)c1ccc(N2CCN(C(=O)CCCn3c(=S)[nH]c4cc5c(cc4c3=O)OCO5)CC2)cc1 | 3.8
CCOc1ccc(Nc2oc(-c3ccccc3Cl)nc2C#N)cc1 | 10.3
CC(OC(=O)CN1C(=O)c2ccccc2C1=O)C(=O)NC1(C#N)CCCCC1 (stereo not shown) | 8.34
CC(NC(=O)CN1C(=O)NC2(CCc3ccccc32)C1=O)c1ccc2c(c1)OCCO2 (stereo not shown) | 12.9
CC1(C)CSC(=NCc2ccccc2)N1C(=O)c1cccc([N+](=O)[O-])c1 | 7.16
O=c1c2nccnc2[nH]c(=S)n1Cc1ccccc1Cl | 10.6
C/C(=N\N=C1\NC(=O)C(CC(=O)O)S1)c1ccccn1 (stereo not shown) | 9.48

SMILES | hERG current change (%, negative = inhibition) at 1uM [%]
CC1CCCN(C(=O)C2COc3ccccc3O2)C1 (stereo not shown) | 11.5
COc1cc(C(=O)O)cc(Br)c1OC1CCCC1 | 23.4
Cl.ClCC1=Nc2cccc3cccc(c23)N1 | 7.46
O=[N+]([O-])c1ccc(Nc2nc(NCCO)nc(N3CCCC3)n2)cc1 | -7.05
COc1ccc(N(C)S(=O)(=O)c2cccc(C(=O)OC(C(=O)Nc3cc(C)cc(C)c3)c3ccccc3)c2)cc1 (stereo not shown) | 15.6
O=C(CN1CCCCC1)Nc1nc(-c2ccc(F)c(F)c2)cs1 | -11.8
O=C(Nc1nnc(S(=O)(=O)N2CCCCC2)s1)c1ccccc1Br | 12.1
COc1ccc(NC(=O)C(c2ccc(OC)cc2)N(Cc2ccco2)C(=O)CC2NC(=O)NC2=O)cc1 (stereo not shown) | 9.67
CCN(CC(=O)Nc1c(F)cccc1F)C(=O)CCc1ccc(OC)cc1 | 20.2
CN(Cc1ccon1)C(=O)CC1C(=O)NCCN1Cc1cccc(F)c1F (stereo not shown) | -1.6
CCOC(=O)c1sc(NC(=O)Nc2ccc(Cl)cc2)cc1C | 7.2
COc1ccc(C2C(C(=O)O)CC(=O)N2c2ccc(OC)cc2)cc1 (stereo not shown) | 11.4
CCSc1nc(C)c(CC)c(C)c1C(N)=O | 10.4
Cc1ncsc1C(=O)Nc1cccc(C(F)(F)F)c1 | 9.09
O=c1[nH]c(-c2ccc(O)cc2)nc2scc(-c3cccs3)c12 | 15.9
NC(=O)NC(CC(=O)NCCc1ccc(S(N)(=O)=O)cc1)c1ccccc1Cl (stereo not shown) | 7.63
Cc1c(NS(=O)(=O)c2ccc(NCCN3CCOCC3)c([N+](=O)[O-])c2)c(=O)n(-c2ccccc2)n1C | 12.7
Cc1cccc(C(=O)Nc2cc(=O)n(C)c(=O)n2C)c1 | 10.8
COc1cc(-c2n[nH]c(=S)n2/N=C/c2cccn2C)cc(OC)c1OC | 2.77
O=C(NCCSc1ccccc1)c1cncc(Br)c1 | 9.91
O=C(CN(Cc1ccccc1Cl)C(=O)c1csnn1)NCc1ccccc1 | -5.55
C[C@H](NC(=O)c1ccccc1)C(=O)N1CCN(c2ccccc2)CC1 | 9.73

SMILES | hERG current change (%, negative = inhibition) at 1uM [%]
C=C1C(=O)[C@@]23[C@H](O)C[C@@H]4C(C)(C)CC[C@H](O)[C@@]4(C)[C@@H]2CC[C@@H]1[C@H]3O | 7.44
Cc1cccc(NC(=O)Nc2cccc(C#N)c2)n1 | 9.99
CC(=O)N1CCc2cc(S(=O)(=O)NC(CC(C)C)C(=O)Nc3cc(C)ccn3)ccc21 (stereo not shown) | 15.2
Cc1noc(C)c1C(=O)Nc1ccc(C#N)cc1 | 14.3
CCOC(=O)c1ccc(N=Nc2c(C)c(C#N)c(O)[nH]c2=O)cc1 | 14.1
O=C1c2ccccc2S(=O)(=O)N1CC1CC(c2ccccc2Cl)=NO1 (stereo not shown) | 13.2
Cc1c(OCC(=O)NCc2ccncc2)ccc2c3c(c(=O)oc12)CCC3 | 12
O=C(CSc1nc2ccccc2o1)N1c2ccccc2Sc2ccccc21 | 1.91
COc1ccccc1C(=O)Nc1ccc(S(=O)(=O)Nc2nccs2)cc1 | 13.8
CC(NC(=O)CN(C)Cc1cccc(Cl)c1)c1ccccc1 (stereo not shown) | 4.99
Cn1cccc1/C=N\NC(=O)C1COc2ccc(C(C)(C)C)cc2O1 (stereo not shown) | 11.7
CC1CC(C)CN(C(=O)Cn2c(=O)n(CCCCC(=O)NCc3ccco3)c(=O)c3ccccc32)C1 (stereo not shown) | 9.92
O=C(c1nsnc1-c1ccccc1O)N1CCCCC1 | 8.04
O=C(/C=C/c1cccc(F)c1)Nc1nccs1 | 14.1
O=C(COc1ccc(Br)cc1)OCc1nnc(-c2ccccc2)o1 | 15
COCCNc1nnc(SCC(=O)Nc2cc(-c3ccccc3)nn2-c2ccccc2)s1 | -8.14
CCCCOc1[nH]c2nc(-c3ccco3)n(Cc3ccco3)c(=N)c2c1C#N | -42.2
COc1ccnc(Oc2ccc(Cl)cc2)c1C#N | -10.3
COc1ccc(N2CCN(C(=O)CN3CCN(C(c4ccccc4)c4ccccc4)CC3)CC2)cc1.Cl | 4.35
O=c1[nH]c(CN2CCN(c3ccccn3)CC2)nc2c(Br)cc(Br)cc12 | -4.19
CC(C)C[C@H](N)C(=O)N1CCC(C(=O)N[C@H](C(=O)NCc2ccc(F)cc2)C(C)C)CC1 | -4.97
Cc1ccc(S(=O)(=O)CC(=O)c2cc3cccc(C)c3oc2=O)cc1 | 6.82

SMILES | hERG current change (%, negative = inhibition) at 1uM [%]
Cc1ccc(CNC(=O)c2nnn(CC(=O)Nc3cccc(C)c3C)c2N)cc1 | 14.4
COc1ccc(CNS(=O)(=O)c2ccc(F)c(C(=O)Nc3ccc(OC)cc3)c2)cc1 | 6.72
CC1=Nc2ccccc2/C1=C\c1nc(-c2ccc(C(F)(F)F)cc2)oc1O | 11.8
CCCOc1ccc([N+](=O)[O-])cc1C1NC(=S)NC(c2ccccc2)=C1C(=O)OCC (stereo not shown) | 11.7
CCCCOC(=O)C1CCCC(C(=O)OCCCC)N1.Cl (stereo not shown) | 15.7
Cc1ccc2c(c1)c(C)cc(=O)n2CCC(=O)O | 15.5
O=C(NCCN1CCOCC1)/C(=C/c1ccco1)NC(=O)c1ccccc1 | -16
COCCn1nnnc1SCC(=O)NCc1ccc2c(c1)OCO2 | 18
C=CCNC(=O)C1(S(=O)(=O)c2ccccc2)CC=CC1 | 4.76
COCCNc1c2c(c(C#N)c3nc4ccccc4n13)CCCC2 | 0.212
Cc1ccc(C(c2nnnn2C2CCCC2)N2CCN(c3nc4ccccc4s3)CC2)cc1 (stereo not shown) | 12.7
COc1ccc(N2CCN(C(=O)Cn3cnc4sc(C)c(S(=O)(=O)N5CCOCC5)c4c3=O)CC2)cc1 | 4.47
CCOC(=O)c1ccc(NC(=S)NCC(O)c2ccccc2)cc1 (stereo not shown) | -3.49
CC(CC(=O)Nc1ccc(C(N)=O)cc1)c1ccccc1 (stereo not shown) | 14.2
CCC1COCCS(=O)(=O)N1Cc1ccc(C)cc1 (stereo not shown) | 6.27
c1ccc(Cc2nnc3n2N=C(c2ccccc2)CS3)cc1 | 3.04
CCOC(=O)CSc1nnc(SCCN2C(=O)c3ccccc3C2=O)s1 | 0.0774
CCC(=O)OC1(C)C(=O)C2=COC(c3ccc(OC)cc3)=CC2=C(Br)C1=O (stereo not shown) | 5.4
COc1ccc(CN2C(=NC(=O)c3ccccc3)SC3CS(=O)(=O)CC32)cc1 (stereo not shown) | 21.9
CC(=O)C1=C(O)C(=O)N(c2ccc(Br)cn2)C1c1ccccc1F (stereo not shown) | 17.2
O=C(NCc1cn2ccccc2n1)c1ccco1 | 14.2
CC(O)c1nc2ccccc2n1Cc1nnc(-c2ccc(Cl)cc2)o1 (stereo not shown) | 8.11
